Here are results for 44 sequences from the supplement of paper PMC11417369.

± gives the standard deviation of the averaged measurements. The list shows a part of the results.

For this assay, the system named is PfAP2-G AP2 domain (GST-tagged). In words: gcPBM binding intensity (ln(normalized median fluorescence intensity)); higher = stronger DNA binding. Summed up: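 Binding of GST-tagged P. falciparum DNA-binding domains, expressed in E. coli and used at about 25 μg on average, was carried out for 1 h in 1× PBS containing 1% milk, 0.2 mg/ml BSA, 0.5% salmon testes DNA and 0.03% Triton X-100. The target was an Agilent 4 × 180k array of primer-extended double-stranded 36-bp intergenic genomic probes plus negative controls, read with Alexa488 anti-GST antibody at 488 nm. Binding intensity is the highest Masliner-normalised natural-log median intensity across replicate spots of either probe orientation.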
Consider “AACCAATTAGAAGGATCCAGAACTTATTTGTTTTTA [CACACA_negctrl_site1744]”, for which the “gcPBM binding intensity (ln)” value came to 9.65 ± 0.2.

For the sequence “TATTTATGTATATGCTGTACGCATTTGTGAAACATA [XGTACX_site4688]”, the “gcPBM binding intensity (ln)” value was found to be 11.5 ± 1.

In the case of “TACAAGCCCAATTCAAGTACATATATATATATATAT [XGTACX_site5569]”, the “gcPBM binding intensity (ln)” value worked out at 11 ± 0.88.

As to “AGTTTGTCAATCAACACACACCTATTTATTATATAT [CACACA_site6030]”, the “gcPBM binding intensity (ln)” value is 10.06 ± 0.071.

Turning to “TTATATATATATATATATATTTACATAATAATATGT [GTGCAC_negctrl_site388]”, the “gcPBM binding intensity (ln)” value is 9.79 ± 0.071.

Turning to “TAAAAAAAGGTTATTGGTACACACATATGTATATAT [XGTACX_site1029]”, the “gcPBM binding intensity (ln)” value came out at 11.1 ± 0.69.

Take “ATTCATTCATATGTTACACACACACGCCCACATAAA [CACACA_site7513]”: the “gcPBM binding intensity (ln)” value was 10.7 ± 0.5.

As to “AAAGATATGAAATATACACACTTCTTTGGTATTATT [CACACA_site6352]”, the “gcPBM binding intensity (ln)” value worked out at 9.81 ± 0.18.

For “TAAACTTTCCAGTGTTGTACATAATAATTATTATAT [XGTACX_site8896]”, the “gcPBM binding intensity (ln)” value was 11.1 ± 0.64.

As for “TTATATAATAAAAATTGTACATATTATATATATATT [XGTACX_site3427]”, the “gcPBM binding intensity (ln)” value stood at 11.1 ± 0.67.

Turning to “GTTGCGTATATATACACACATACATATATATATATA [CACACA_site1607]”, the “gcPBM binding intensity (ln)” value was found to be 10.2 ± 0.27.

For the sequence “TAATATTCAATTATACGTACACATATATATATATAT [XGTACX_site4245]”, the “gcPBM binding intensity (ln)” value came to 11.8 ± 1.1.

“TATGAAAGAAATAGTACACACATAAACATTTGTAAA [CACACA_site2783]”: the “gcPBM binding intensity (ln)” value amounted to 11.3 ± 1.

For the sequence TCATATATCATAACAGTGCAAAAAAAAAAAAATTAT, the “gcPBM binding intensity (ln)” value was 10 ± 0.3.

Turning to “GTTAGAGGGAAAAAGAGTACATATATGTGGATAATT [XGTACX_site2064]”, the “gcPBM binding intensity (ln)” value is 11.4 ± 0.75.

“AAAAAAAAAAAAGAAACACACATATATATATATATA [CACACA_site140]”: the “gcPBM binding intensity (ln)” value came out at 9.74 ± 0.24.

For the sequence “GTTTGATTAAACTTGACACACATATATATAAATATA [CACACA_site1784]”, the “gcPBM binding intensity (ln)” value worked out at 10.1 ± 0.17.

In the case of “AGAAAATATACAAAACGTACTTATATATTATATCTA [XGTACX_site3104]”, the “gcPBM binding intensity (ln)” value was 10.9 ± 0.69.

Consider “AAATGTTATAACTCTTGAAAAAACAAAATATCATCA [CACACA_negctrl_site1156]”, for which the “gcPBM binding intensity (ln)” value turned out to be 9.77 ± 0.11.

As to “GAGTTTTTTTAATGATGTACATTTTAAAAATAAACG [XGTACX_site1036]”, the “gcPBM binding intensity (ln)” value came to 11.1 ± 0.69.

Regarding “AAAATAATATATGTATGTACATATACACATATAGAA [XGTACX_site2218]”, the “gcPBM binding intensity (ln)” value stood at 11.1 ± 0.59.

Take “ACTTTACAATATATATGTACATATTAATAAACATAT [XGTACX_site3689]”: the “gcPBM binding intensity (ln)” value is 11.2 ± 0.71.

With “AAATATTACGGAATAAAGAGCTTTTAAATAATTTTA [CACACA_negctrl_site1700]”, the “gcPBM binding intensity (ln)” value turned out to be 9.85 ± 0.17.

For “TTTATTATACAAAATTGTACTTTATAATTTTATGTA [XGTACX_site5846]”, the “gcPBM binding intensity (ln)” value was 11 ± 0.79.

In the case of “TATTTTATACATATTTTACACACTAATATATACATA [CACACA_site7998]”, the “gcPBM binding intensity (ln)” value was 10.1 ± 0.18.

Regarding “AAATATAAACGGCACACACACAAAAAAAGAAAAAAA [CACACA_site649]”, the “gcPBM binding intensity (ln)” value was found to be 10.2 ± 0.29.

With “AGAAACCTTGTTAGTTAGCATATATATATATATATA [CACACA_negctrl_site372]”, the “gcPBM binding intensity (ln)” value amounted to 10 ± 0.4.

For “AATATGAAAAGATGAACAACAAAATGGAGAACAATA [GTGCAC_negctrl_site612]”, the “gcPBM binding intensity (ln)” value came out at 10.4 ± 0.34.

Regarding “TTTATAAAAATGAACACACACATATATATATATATA [CACACA_site3493]”, the “gcPBM binding intensity (ln)” value stood at 10.4 ± 0.79.

With “AAATATTTATAGGTTTGTACTTATAAATAAAAAAAA [XGTACX_site7360]”, the “gcPBM binding intensity (ln)” value came out at 11.2 ± 0.88.

Regarding “TGAGGTAACTAAATATGTACGTAACGAAGATACATA [XGTACX_site8231]”, the “gcPBM binding intensity (ln)” value amounted to 11.3 ± 0.62.

Regarding “ATACAAAATTTTTAAGAACACACAAAAATGTACTAT [CACACA_site8817]”, the “gcPBM binding intensity (ln)” value stood at 10.9 ± 0.61.

With “AAGAAAAACTTTACGTGTACCAAACGTCATGCCAAC [XGTACX_site2575]”, the “gcPBM binding intensity (ln)” value was determined as 11 ± 0.58.

Consider “GCGTTATTAAATAATTCACACACATATATATATATA [CACACA_site8711]”, for which the “gcPBM binding intensity (ln)” value is 10.1 ± 0.28.

With “GAACGCCATTCACATAAAGGGATACATAAATAAATA [XGTACX_negctrl_site330]”, the “gcPBM binding intensity (ln)” value turned out to be 10.1 ± 0.2.

Turning to “AATCACAAATAAAATAATATGACACAATATAAAATA [CACACA_negctrl_site537]”, the “gcPBM binding intensity (ln)” value came out at 9.945 ± 0.064.

Consider “TACTTACACTGTTTTTGTACTTATTTCCCTTTTATT [XGTACX_site2158]”, for which the “gcPBM binding intensity (ln)” value came out at 11.2 ± 0.56.

Regarding “TTCTTGTATTTTCATAGTACATATAATGTCGTATTA [XGTACX_site600]”, the “gcPBM binding intensity (ln)” value worked out at 10.9 ± 0.62.

In the case of “TAATTTCTTATGTATTGTACAAATAATGTATGATAT [XGTACX_site270]”, the “gcPBM binding intensity (ln)” value is 10.9 ± 0.56.

“AAAATAAAATTAGTTGCATGCAACTTAAACAGAAAT [TGCATGCA_site860]”: the “gcPBM binding intensity (ln)” value was found to be 10.1 ± 0.14.

Consider “TTGTGCTTGATATCACGGACAAGCTCATATTATATA [XGTACX_site4553]”, for which the “gcPBM binding intensity (ln)” value turned out to be 10.5 ± 0.42.

Turning to “ATAAATAAAGGACACACACACACACTAGAAAAAAAA [CACACA_site5450]”, the “gcPBM binding intensity (ln)” value came to 11.2 ± 0.92.

Regarding “ATGAAAAAATTTATATGTACTTAAAATATAATCATA [XGTACX_site1228]”, the “gcPBM binding intensity (ln)” value was 11.3 ± 0.85.

On to “TATATTATTAAGATATGTACATAATTATAAATTTAA [XGTACX_site6848]”, for which the “gcPBM binding intensity (ln)” value turned out to be 11.1 ± 0.73.
